Read counts are not given, so values of variants with three or more changes are uncertain.

B1: LINE1-mini (parent)
chain: GGCAGAGCUCAACACAGCGUGGCAAAGUGGCUGUGGCUAGACUGCC

Variants of B1 are the subject of the data set. Nature of the data set: self-cleavage, relative activity (ratio to wild type); higher = more cleavage; in vitro, sequencing; the parent is a self-cleaving ribozyme.
Regarding G1C G5U C15A C42U, the self-cleavage was 0.03. For the variant G2U C18U A26G, the self-cleavage is 0.01. Take G17U C18A G29A C31U: the self-cleavage was determined as 0.15. For A16G A25U G33C U34G C46G, the self-cleavage was 0.01. Consider A6G A14C G29A A39C, for which the self-cleavage was 0.11. Take C3G A4G U20G: the self-cleavage stood at 0.05. Take A11G U20C A39U G40C: the self-cleavage was determined as 0.01. C23G A25C U28A G29U: the self-cleavage was determined as 0.41. As for G22A G35A C42U, the self-cleavage worked out at 0.15. For A26U G29U A41C C45U, the self-cleavage was found to be 0.06.

Turning to A4C G5C U20G G30U G35U, the self-cleavage was 0. On to G2C G35U G44U, for which the self-cleavage came to 0.11. On to U9A U20A U43C C45U, for which the self-cleavage was 0.04. As to A4U G35A C45U, the self-cleavage worked out at 0.61. Next, C8U C10G G21A U38A G40A: 0; G2A A14G A16C C23U C31G G44C: 0.1; G5C G17C G19U C23U U28C G30U C42A: 0.01.

For G5A C18A G30U G35A U43G, the self-cleavage turned out to be 0.02. As to G5A U9G A39U, the self-cleavage was determined as 0.11. As to G5U A16C U20G, the self-cleavage is 0.01. Regarding A4G C31U G35U, the self-cleavage was found to be 0.03. Take G1U G7A G19A U34C C37U G40A A41G C42U: the self-cleavage amounted to 0.03. For the variant G1A A26C G35A, the self-cleavage was 0.17.

On to G7C U28G G40U, for which the self-cleavage was found to be 0.15. For C18G U34A C37U, the self-cleavage was determined as 0.11. As for G5U A16G G36U, the self-cleavage turned out to be 0.06. For U9C A16G G35U G36A G40U, the self-cleavage amounted to 0.01. On to C23A G27U G29U A41G G44A, for which the self-cleavage is 0.04. As to A11C A14C A24U G27C U32G C37U, the self-cleavage turned out to be 0. For the variant G22A A24U G27C, the self-cleavage was determined as 0.24.

Turning to U9A A14C G17C G29U G33U, the self-cleavage is 0.07. For the variant C18G G21A A41C, the self-cleavage was found to be 0.05. Turning to A26G G29A U43A, the self-cleavage amounted to 0.06. With A12C C18U G33A, the self-cleavage came out at 0.01. Regarding A26U U34C U43C, the self-cleavage was found to be 0.05. For the variant C3U G22U G33A U34C, the self-cleavage stood at 0.09. Turning to G17U G33C G40A G44C, the self-cleavage worked out at 0.04. Regarding U28G G29U G40U, the self-cleavage is 0.03.

In the case of G1C C15G C37G, the self-cleavage is 0.03.

Regarding G5U G33A U38C, the self-cleavage was determined as 0.01. As to G1C G17U U34G, the self-cleavage amounted to 0.03. In the case of A4G G5A G44U, the self-cleavage is 0.24. In the case of A6U G22C A24U, the self-cleavage is 0.45. The result for G1C C3G C45A reads 0.39; that for A11G A16C G35U, 0.01; that for C3G U32A A41G, 0.04. On to C15G G22A G33A U34A C37G, for which the self-cleavage was 0.02. The result for U9G G27U C46U reads 0.55. As to G5C G7A A12U C15A U20A A39U C45A, the self-cleavage was 0. G2C C15U G22A C23A C37A: the self-cleavage turned out to be 0.67. Take C31G U38A A39C G40A C46A: the self-cleavage came to 0.

Consider A6G U9G C10U C13A C18U G29A G36C, for which the self-cleavage came to 0.03. The result for C31G A39U G40U reads 0.07; that for C3U C15U A16C, 0.03. Regarding C3U A4G C31A U34G, the self-cleavage was 0.1. Turning to G1U C13U A24U G33C C45U, the self-cleavage is 0.02. In the case of A16C G29A U43A, the self-cleavage was 0.05.

In the case of G19C U20A G21A, the self-cleavage amounted to 0.54. Turning to G27A G35C C42U, the self-cleavage was found to be 0.03. In the case of C15U G17U C46U, the self-cleavage was determined as 0.04. On to G1A C8U A16G A25G A26U U43A G44A, for which the self-cleavage was determined as 0.2.

Consider C3G A6U U9A C18A, for which the self-cleavage worked out at 0.04. For the variant C18U A24G C45G, the self-cleavage came to 0.05. The result for A25G G30A G36U C46U reads 0.01; that for G7C G36U A39G U43A G44A, 0.02; that for C3G U20A A39U, 0.06.

On to G5U U9C G17U G36U C37A, for which the self-cleavage came out at 0.02.

In the case of A4U C8G C10U G40U, the self-cleavage was determined as 0.08.

For G30U U34A C46U, the self-cleavage is 0.03. Regarding C8G G27U C45G, the self-cleavage came to 0.05.

With A4C A6C G17U C18U G22A G33A, the self-cleavage was found to be 0.01. With C10A C18U G30C G33U A39G, the self-cleavage came to 0.02. As to C8G A12G C13U U34G G36U, the self-cleavage amounted to 0.02.

Consider G7U C13A C31U C37A, for which the self-cleavage was 0.02.

Regarding G1A G22C U34G G36C, the self-cleavage amounted to 0.11. Consider G1A G5U U28G G33A G44C, for which the self-cleavage is 0.02. U9G C18A G30C: the self-cleavage was 0.03. Regarding G2C A11U C13A U34A, the self-cleavage worked out at 0.02. Consider G7A G35A G36C, for which the self-cleavage turned out to be 0.16. Take G7U C10U A14U: the self-cleavage turned out to be 0.1. On to G1C C18G G29U, for which the self-cleavage worked out at 0.18. Next, C8A G17U C23U G30C C45U: 0.35; A4U G7U A24G A41C: 0.35; G7C U20A U28C G30U: 0.03.

Consider U9C C15A U32G, for which the self-cleavage was 0.03. For A11G U38A A39G, the self-cleavage came to 0.02. For the variant C10A A12G G33U U38G A39C, the self-cleavage worked out at 0. Regarding A4U C8A U28A U43C, the self-cleavage amounted to 0.83. Next, C8U G17U U34A G44C: 0.02. For the variant A4C G7C A14U G17A G21C G27U U43C, the self-cleavage is 0.14. Turning to G1U A6U U9A, the self-cleavage turned out to be 0.05.

As to C13A U20C G40C, the self-cleavage was found to be 0.01. Next, G5U C18G C31G U34G G36C: 0.04; G5U C8U A12G G21A C23G: 0.03; A14U A26G G29C G30C G33U: 0.02. G17U U34G A41U: the self-cleavage stood at 0.06.

A6U A14U C15A G19C: the self-cleavage was 0.02. Next, G1U U32G U34C G44A: 0.02. Consider G5U G21U C23A U28C, for which the self-cleavage was 0.02.

G2U C13G G29A U34C C46U: the self-cleavage came out at 0.01. C3A C10U A11U A26G G35A: the self-cleavage turned out to be 0.03. With C3U C10U A16C U34C C46U, the self-cleavage turned out to be 0.02. As for C10U G27U G29A C31U, the self-cleavage is 0.11. Next, C8A G22A C23G: 0.21. Turning to G19C U28A G29U A41G, the self-cleavage was 0.08. A14G U28A C45G: the self-cleavage turned out to be 0.2. The result for C3U C31G G40U reads 0.06. Regarding A16C G19A G30U G44A, the self-cleavage amounted to 0.01. G5A C18A C37U C46A: the self-cleavage came out at 0.17. Next, C15A G22U C31A U43A C46U: 0.02; G29C G30U C37U U43C: 0.04; G5U U20A C45A: 0.02. For A16U C18A G19A U20C G22A C23A G30C G33U, the self-cleavage is 0.03.

Turning to A14C U20G G40A, the self-cleavage was 0.08. Turning to G7U G27A G35A C46A, the self-cleavage amounted to 0.11.

Regarding G5U C18A C37U, the self-cleavage was determined as 0.02. As for G17U C18A G29U G33U, the self-cleavage was determined as 0.02. As for U9G A12U G35C, the self-cleavage turned out to be 0.01. The result for G2A A16C U28G reads 0. For the variant A11U U34G C42G, the self-cleavage came out at 0. As to G7A A14C C37G, the self-cleavage worked out at 0.17.

Regarding C8G A26U A41U G44C, the self-cleavage was 0.19. Consider G5C G7C A11C C31U C37G, for which the self-cleavage stood at 0.01. Take A25C G27C U28C G40A C42U: the self-cleavage stood at 0.24.

For the variant C3U A4C G5C C13A C31A, the self-cleavage is 0.45. A24U G40U A41U: the self-cleavage amounted to 0.42.

In the case of G7U G19C G22U G27C C37A, the self-cleavage amounted to 0.01. Take G21C G35U U38G: the self-cleavage turned out to be 0.03. A4G A25U G27A: the self-cleavage came out at 0.34. As for U9G G22U U38A C45G, the self-cleavage was determined as 0.01. Consider U9G A12C A14C C15A G36C G40U, for which the self-cleavage amounted to 0.06. Turning to G17U C18A U20C A39C C46A, the self-cleavage is 0.04. Turning to C8A C18A G44U, the self-cleavage was 0.45. The result for G2U U9G C10G G35C reads 0.01; that for C3U G22A G36U C46G, 0.04; that for G19U G21C A26U, 0.3. The result for C10G A12U C37G reads 0.02; that for G7C A12U G19C U32A U38C, 0.01. Consider C3A C15U G40C, for which the self-cleavage stood at 0.22. Take A4U C8U C18A U20A G27C C42A: the self-cleavage stood at 0.03. On to G2A C3A A4G C15A, for which the self-cleavage is 0.4. Next, G5C C13U A24C A41C: 0.03. Regarding C8U A14C G21A, the self-cleavage is 0.32. As for G2U U9A G35C C45U, the self-cleavage is 0.01.

As to G1U A11U G35A G40U, the self-cleavage came out at 0. G5C G7C U20C: the self-cleavage turned out to be 0.08.

In the case of C3U A4C A12G, the self-cleavage worked out at 0.09. G5A G27U G33U C46G: the self-cleavage is 0.03.

Take A4U A25U G29U: the self-cleavage amounted to 2.92. G21U C37G C46U: the self-cleavage is 0.04. Regarding C15G G17C G44A, the self-cleavage was 0.04. On to G17C G22U C31A, for which the self-cleavage turned out to be 0.77. Regarding C3G A14U G19U G21A A26G, the self-cleavage was found to be 0.24.

Take A16G G29A U38G C46G: the self-cleavage was 0.02.

As to A14G G21U G22A A24U, the self-cleavage was found to be 0.91. As to G21U G22C A24G G33U, the self-cleavage was 0.22. The result for U9C G22A A39C reads 0.02; that for C10A C15A G17A A26U, 0.04.

Take A14C C15G A16U C18A: the self-cleavage came to 0.08. The result for A11C G36U G44U reads 0.02; that for A4U A11G C18G, 0.01.

In the case of U9A C10U G21U, the self-cleavage worked out at 0.03. The result for A14G G17U G22C U32C G33C U34C reads 0.03. Take G2C C10A A16G U32A: the self-cleavage amounted to 0.02.

Regarding G17C G21U G27A G40C, the self-cleavage was determined as 0.02. In the case of A26C G29C G30A U38A, the self-cleavage worked out at 1.34. Take G2C A4U C31U G40A: the self-cleavage was found to be 0.04.

Source of the values: the RNAGym collection of RNA variant scans (doi:10.7554/elife.90254).
